Results from PubChem BioAssay AID686971 (National Center for Advancing Translational Sciences (NCATS), 2013).
Among all 360,000 compounds or so, about 7,500 (2.1%) were called active. Inconclusive means that the source gave no clear call. Such entries were picked first, then a sample of the others. Calls come from the whole dose curve; as a rule, active = well fitted cell-killing curve with a large enough effect; inconclusive = small, poorly fitted or top-dose-only effect, or effect the other way, or another doubt; inactive = no such curve, though single readings can be large or run the other way. No potency is given beside an inconclusive call; the fits are too rough.

assay: qHTS for induction of synthetic lethality in tumor cells producing 2HG: qHTS for the HT-1080-IDH1KD cell line; conditions: HT-1080 IDH1 knockdown viability, ATP luminescence, 48 h; activity, negative = toxicity: at 46.1 µM (top of the series) unless noted;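 for activity, negative = toxicity: 0% = DMSO wells and -100% = cell-free medium wells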
Summary of the method: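 Viability of IDH1-knockdown HT-1080 fibrosarcoma cells was assessed by CellTiter-Glo after 48 h at 37 °C with titrated compound; concentration-effect curves were classified by fit quality and response size.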
Potency is the fitted concentration of half-maximal effect; tags give direction and shape of the fitted curve.

SMILES | Potency | activity, negative = toxicity
COc1cc(NC(=O)C2CC(c3cccc(OC)c3OC)=NO2)cc(OC)c1OC (stereo unspecified) | inconclusive [cytotoxic, single point] | 
CC1(C(=O)NS(=O)(=O)c2cccc(OC(F)F)c2)CCN1C(=O)COc1ccc(Cl)cc1 (stereo unspecified) | inconclusive [rising, single point] | 
Cc1ccc(C)c(NC(=S)N(CCN(C)C)C(C)c2ccccn2)c1 (stereo unspecified) |  | inactive: 12.8%
CCc1ccc(S(=O)(=O)Nc2cccc(-c3ccc4nncn4n3)c2)s1 | inconclusive [cytotoxic, single point] | 
COc1ccc(CNC(=S)N/N=C(\C)c2ccc(OC)cc2)cc1 | inconclusive [cytotoxic, single point] | 
CCc1cc[n+](C2=C([O-])c3ccccc3C(=O)/C2=N\S(=O)(=O)c2cccs2)cc1 | active: 18.4 µM | 
Cc1cc(N)n2ncc(-c3ccc(F)cc3)c2n1 | inconclusive [cytotoxic, single point] | 
Cc1ccc(S(=O)(=O)NC(=O)C2(C)CCN2C(=O)c2ccccc2CCc2ccccc2)nc1 (stereo unspecified) |  | inactive: 10.5%
O=C1CCCc2c1cc(-c1ccccc1)n2-c1ccccc1 | inconclusive [cytotoxic, single point] | 
CCCCN(Cc1ccco1)C(=O)C1CCCN(c2ncnc3c2nc2n3CCCCC2)C1 (stereo unspecified) | inconclusive [cytotoxic, single point] | 
COc1ccc(-c2sc3cc(OC)ccc3c2-c2ccc(OCCN3CCOCC3)cc2)cc1 |  | inactive: -23.2%
CCn1nc([N+](=O)[O-])c(C(C#N)c2nc3ccccc3n2C)c(Cl)c1=O (stereo unspecified) | inconclusive [cytotoxic, single point] | 
CCOC(=O)C1=C(C)NC(=S)N(C(C)=O)C1c1ccccc1 (stereo unspecified) | inconclusive [cytotoxic, single point] | 
COCc1cc(=O)n2[nH]c(-c3ccc(C)cc3)cc2n1 |  | inactive: -1.75% [at 9.24 µM]
N#Cc1c(NC(=O)c2cccnc2)sc2c1CCC2 | active: 9.2 µM | 
CN(C)c1ccc(/C=N/NC(=O)c2nnn(-c3nonc3N)c2CN(C)c2ccccc2)cc1 | inconclusive [cytotoxic, partial curve] | 
CCc1nnc(NC(=O)CSc2nc(C)cs2)s1 |  | inactive: 13%
COC(=O)C1(Cc2cc(-c3cccnc3)no2)CCN(C(=O)OC(C)(C)C)CC1 |  | inactive: 10.1%
CSC(=Nc1ccccc1)N=C(SCc1ccccc1)N(C)C | active: 13 µM | 
CN(CC(O)COc1ccccc1F)C1CCCCC1 (stereo unspecified) |  | inactive: 2.3%
Cc1nc(NC(=O)/C=C/c2ccccc2)n[nH]1 | active: 18.4 µM | 
